Source: PubChem BioAssay AID1117319 (Southern Research Institute, 2015)
Results filed as inconclusive are left out. For part of its entries the source gives two or more results. The other results are left out here. There may be further records. The records of an entry repeat one measurement across runs, samples, wells, individuals or studies. A tag in brackets gives the origin of a value. The letters are not those of the source and start again with each entry.

Biological target: Virion infectivity factor (Human immunodeficiency virus type 1 group M subtype B (isolate BH10)) + Virion infectivity factor (Human immunodeficiency virus type 1 group M subtype B (isolate BRU/LAI)) + Virion infectivity factor (Human immunodeficiency virus type 1 group M subtype B (isolate PCV12)) + Virion infectivity factor (Human immunodeficiency virus type 1 group M subtype B (isolate HXB2)) + DNA dC->dU-editing enzyme APOBEC-3G (Homo sapiens) (UniProt P69720+P69721+P69722+P69723+Q9HC16)
Assay: HIV-1 Vif–A3G interaction blockers – biochemical, TR-FRET, GST-Vif 1-94, biotin-A3G peptide, dose response retest, primary screen (AID 1117319);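 also: Vif residues 1-94 fused to GST binding biotinylated APOBEC3G peptide 110-148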
Conditions: TR-FRET GST-Vif / biotin-A3G peptide binding

| Structure (SMILES) | IC50 |
| --- | --- |
| O=C(Nc1ccccc1)c1ccc2nc(-c3ccco3)c(-c3ccco3)nc2c1 | 1.48 µM [sample A] and 19.9 µM [sample B] |
| Clc1ccccc1CSc1nnc(-c2ccco2)c(-c2ccco2)n1 | 1.37 µM [sample A] and 25.2 µM [sample B] |
